# This is one part of the list.
# Assays:
# Test in all cases: glycan array binding signal (z-score within array); higher = stronger binding
# Conditions in all cases: glycan notation: IUPAC condensed, linker removed
# [1] = molecular target: Neu5Ac(a2-6)Gal(b1-4)GlcNAc
# Outline: (§1)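 From the Consortium for Functional Glycomics database, 3228 arrays were curated, keeping only those whose protein sequence was available. Binding is given as a within-array Z-score averaged across arrays sharing a protein sequence and across linkers. Negative Z-scores can be read as non-binding.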
# [2] = molecular target: Neu5Ac(a2-6)Gal(b1-4)GlcNAc(b1-2)Man
# Outline: as §1
# [3] = molecular target: Neu5Ac(a2-6)Gal(b1-4)GlcNAc(b1-2)Man(a1-3)Man(b1-4)GlcNAc(b1-4)GlcNAc
# Outline: as §1
# [4] = molecular target: Neu5Ac(a2-6)Gal(b1-4)GlcNAc(b1-2)Man(a1-3)[Gal(b1-4)GlcNAc(b1-2)Man(a1-6)]Man(b1-4)GlcNAc(b1-4)GlcNAc
# Outline: as §1
# [5] = molecular target: Neu5Ac(a2-6)Gal(b1-4)GlcNAc(b1-2)Man(a1-3)[GlcNAc(b1-2)Man(a1-6)]Man(b1-4)GlcNAc(b1-4)GlcNAc
# Outline: as §1
# [6] = molecular target: Neu5Ac(a2-6)Gal(b1-4)GlcNAc(b1-2)Man(a1-3)[GlcNAc(b1-2)Man(b1-4)GlcNAc(b1-2)Man(a1-6)]Man(b1-4)GlcNAc(b1-4)GlcNAc
# Outline: as §1
# [7] = molecular target: Neu5Ac(a2-6)Gal(b1-4)GlcNAc(b1-2)Man(a1-3)[GlcNAc(b1-4)][Neu5Ac(a2-6)Gal(b1-4)GlcNAc(b1-2)Man(a1-6)]Man(b1-4)GlcNAc(b1-4)GlcNAc
# Outline: as §1
# [8] = molecular target: Neu5Ac(a2-6)Gal(b1-4)GlcNAc(b1-2)Man(a1-3)[Man(a1-6)]Man(b1-4)GlcNAc(b1-4)GlcNAc
# Outline: as §1
# [9] = molecular target: Neu5Ac(a2-6)Gal(b1-4)GlcNAc(b1-2)Man(a1-3)[Neu5Ac(a2-3)Gal(b1-4)GlcNAc(b1-2)Man(a1-6)]Man(b1-4)GlcNAc(b1-4)GlcNAc
# Outline: as §1
# [10] = molecular target: Neu5Ac(a2-6)Gal(b1-4)GlcNAc(b1-2)Man(a1-3)[Neu5Ac(a2-6)Gal(b1-4)GlcNAc(b1-2)Man(a1-6)]Man(b1-4)GlcNAc(b1-4)GlcNAc
# Outline: as §1
# [11] = molecular target: Neu5Ac(a2-6)Gal(b1-4)GlcNAc(b1-2)Man(a1-3)[Neu5Ac(a2-6)Gal(b1-4)GlcNAc(b1-2)Man(a1-6)]Man(b1-4)GlcNAc(b1-4)[Fuc(a1-6)]GlcNAc
# Outline: as §1
# [12] = molecular target: Neu5Ac(a2-6)Gal(b1-4)GlcNAc(b1-2)Man(a1-6)Man(b1-4)GlcNAc(b1-4)GlcNAc
# Outline: as §1
# [13] = molecular target: Neu5Ac(a2-6)Gal(b1-4)GlcNAc(b1-2)Man(a1-6)[Gal(b1-4)GlcNAc(b1-2)Man(a1-3)]Man(b1-4)GlcNAc(b1-4)GlcNAc
# Outline: as §1
# [14] = molecular target: Neu5Ac(a2-6)Gal(b1-4)GlcNAc(b1-2)Man(a1-6)[GlcNAc(b1-2)Man(a1-3)]Man(b1-4)GlcNAc(b1-4)GlcNAc
# Outline: as §1
# [15] = molecular target: Neu5Ac(a2-6)Gal(b1-4)GlcNAc(b1-2)Man(a1-6)[Man(a1-3)]Man(b1-4)GlcNAc(b1-4)GlcNAc
# Outline: as §1
# [16] = molecular target: Neu5Ac(a2-6)Gal(b1-4)GlcNAc(b1-2)[Neu5Ac(a2-6)Gal(b1-4)GlcNAc(b1-4)]Man(a1-3)[GlcNAc(b1-4)][Neu5Ac(a2-6)Gal(b1-4)GlcNAc(b1-2)[Neu5Ac(a2-6)Gal(b1-4)GlcNAc(b1-6)]Man(a1-6)]Man(b1-4)GlcNAc(b1-4)GlcNAc
# Outline: as §1
# [17] = molecular target: Neu5Ac(a2-6)Gal(b1-4)GlcNAc(b1-2)[Neu5Ac(a2-6)Gal(b1-4)GlcNAc(b1-4)]Man(a1-3)[GlcNAc(b1-4)][Neu5Ac(a2-6)Gal(b1-4)GlcNAc(b1-4)Man(a1-6)]Man(b1-4)GlcNAc(b1-4)GlcNAc
# Outline: as §1
# [18] = molecular target: Neu5Ac(a2-6)Gal(b1-4)GlcNAc(b1-2)[Neu5Ac(a2-6)Gal(b1-4)GlcNAc(b1-6)]Man(a1-6)[Neu5Ac(a2-6)Gal(b1-4)GlcNAc(b1-2)Man(a1-3)][GlcNAc(b1-4)]Man(b1-4)GlcNAc(b1-4)GlcNAc
# Outline: as §1
# [19] = molecular target: Neu5Ac(a2-6)Gal(b1-4)GlcNAc(b1-3)Gal(b1-3)GlcNAc
# Outline: as §1
# [20] = molecular target: Neu5Ac(a2-6)Gal(b1-4)GlcNAc(b1-3)Gal(b1-4)GlcNAc
# Outline: as §1
# [21] = molecular target: Neu5Ac(a2-6)Gal(b1-4)GlcNAc(b1-3)Gal(b1-4)GlcNAc(b1-2)Man(a1-3)[Neu5Ac(a2-6)Gal(b1-4)GlcNAc(b1-3)Gal(b1-4)GlcNAc(b1-2)Man(a1-6)]GalNAc
# Outline: as §1
# [22] = molecular target: Neu5Ac(a2-6)Gal(b1-4)GlcNAc(b1-3)Gal(b1-4)GlcNAc(b1-3)Gal(b1-4)GlcNAc
# Outline: as §1
# [23] = molecular target: Neu5Ac(a2-6)Gal(b1-4)GlcNAc(b1-3)Gal(b1-4)GlcNAc(b1-3)Gal(b1-4)GlcNAc(b1-2)Man(a1-3)[Neu5Ac(a2-6)Gal(b1-4)GlcNAc(b1-3)Gal(b1-4)GlcNAc(b1-3)Gal(b1-4)GlcNAc(b1-2)Man(a1-6)]GalNAc
# Outline: as §1
# [24] = molecular target: Neu5Ac(a2-6)Gal(b1-4)GlcNAc(b1-3)Gal(b1-4)GlcNAc(b1-3)GalNAc
# Outline: as §1
# [25] = molecular target: Neu5Ac(a2-6)Gal(b1-4)GlcNAc(b1-3)Gal(b1-4)GlcNAc(b1-3)[Neu5Ac(a2-6)Gal(b1-4)GlcNAc(b1-3)Gal(b1-4)GlcNAc(b1-6)]GalNAc
# Outline: as §1
# [26] = molecular target: Neu5Ac(a2-6)Gal(b1-4)GlcNAc(b1-3)Gal(b1-4)GlcNAc(b1-6)[Gal(b1-3)]GalNAc
# Outline: as §1
# [27] = molecular target: Neu5Ac(a2-6)Gal(b1-4)GlcNAc(b1-3)Gal(b1-4)[Fuc(a1-3)]GlcNAc(b1-3)Gal(b1-4)[Fuc(a1-3)]GlcNAc
# Outline: as §1
# [28] = molecular target: Neu5Ac(a2-6)Gal(b1-4)GlcNAc(b1-3)GalNAc
# Outline: as §1
# [29] = molecular target: Neu5Ac(a2-6)Gal(b1-4)GlcNAc(b1-3)[Neu5Ac(a2-6)Gal(b1-4)GlcNAc(b1-6)]GalNAc
# Outline: as §1
# [30] = molecular target: Neu5Ac(a2-6)Gal(b1-4)GlcNAc(b1-6)GalNAc
# Outline: as §1
# [31] = molecular target: Neu5Ac(a2-6)Gal(b1-4)GlcNAc(b1-6)[Gal(b1-3)GlcNAc(b1-3)]Gal(b1-4)Glc
# Outline: as §1
# [32] = molecular target: Neu5Ac(a2-6)Gal(b1-4)GlcNAc(b1-6)[Gal(b1-3)]GalNAc
# Outline: as §1
# [33] = molecular target: Neu5Ac(a2-6)Gal(b1-4)GlcNAc6S
# Outline: as §1
# Neu5Ac(a2-6)GalNAc = molecular target: Neu5Ac(a2-6)GalNAc
# Outline: as §1
# [34] = molecular target: Neu5Ac(a2-6)GalNAc(b1-4)GlcNAc
# Outline: as §1
# [35] = molecular target: Neu5Ac(a2-6)GalNAc(b1-4)GlcNAc6S
# Outline: as §1
# [36] = molecular target: Neu5Ac(a2-6)GlcNAc(b1-4)GlcNAc
# Outline: as §1
# [37] = molecular target: Neu5Ac(a2-6)GlcNAc(b1-4)GlcNAc(b1-4)GlcNAc
# Outline: as §1
# Neu5Ac(a2-8)Neu5Ac = molecular target: Neu5Ac(a2-8)Neu5Ac
# Outline: as §1
# [38] = molecular target: Neu5Ac(a2-8)Neu5Ac(a2-3)Gal(b1-3)GalNAc(b1-4)[Neu5Ac(a2-3)]Gal(b1-4)Glc
# Outline: as §1
# [39] = molecular target: Neu5Ac(a2-8)Neu5Ac(a2-3)Gal(b1-3)GalNAc(b1-4)[Neu5Ac(a2-8)Neu5Ac(a2-3)]Gal(b1-4)Glc
# Outline: as §1
# [40] = molecular target: Neu5Ac(a2-8)Neu5Ac(a2-3)Gal(b1-4)Glc
# Outline: as §1
# [41] = molecular target: Neu5Ac(a2-8)Neu5Ac(a2-3)Gal(b1-4)GlcNAc
# Outline: as §1
# [42] = molecular target: Neu5Ac(a2-8)Neu5Ac(a2-3)[Gal(b1-3)GalNAc(b1-4)]Gal(b1-4)Glc
# Outline: as §1
# [43] = molecular target: Neu5Ac(a2-8)Neu5Ac(a2-3)[GalNAc(b1-4)]Gal(b1-4)Glc
# Outline: as §1
binder,measurement,setting,value
"PA-IL (Pseudomonas aeruginosa), Q05097 (protein) MAWKGEVLANNEAGQVTSIIYNPGDVITIVAAGWASYGPTQKWGPQGDREHPDQGLICHDAFCGALVMKIGNSGTIPVNTGLFRWVAPNNVQGAITLIYNDVPGTYGNNSGSFSVNIGKDQS",glycan array binding signal (z-score),[1],-0.231
same,glycan array binding signal (z-score),[2],-0.225
same,glycan array binding signal (z-score),[3],-0.218
same,glycan array binding signal (z-score),[4],-0.228
same,glycan array binding signal (z-score),[5],-0.239
same,glycan array binding signal (z-score),[6],-0.233
same,glycan array binding signal (z-score),[7],-0.238
same,glycan array binding signal (z-score),[8],-0.235
same,glycan array binding signal (z-score),[9],-0.251
same,glycan array binding signal (z-score),[10],-0.225
same,glycan array binding signal (z-score),[11],-0.205
same,glycan array binding signal (z-score),[12],-0.225
same,glycan array binding signal (z-score),[13],-0.215
same,glycan array binding signal (z-score),[14],-0.225
same,glycan array binding signal (z-score),[15],-0.227
same,glycan array binding signal (z-score),[16],-0.224
same,glycan array binding signal (z-score),[17],-0.225
same,glycan array binding signal (z-score),[18],-0.243
same,glycan array binding signal (z-score),[19],-0.225
same,glycan array binding signal (z-score),[20],-0.236
same,glycan array binding signal (z-score),[21],-0.22
same,glycan array binding signal (z-score),[22],-0.227
same,glycan array binding signal (z-score),[23],0.029
same,glycan array binding signal (z-score),[24],-0.228
same,glycan array binding signal (z-score),[25],0.055
same,glycan array binding signal (z-score),[26],-0.187
same,glycan array binding signal (z-score),[27],-0.199
same,glycan array binding signal (z-score),[28],-0.236
same,glycan array binding signal (z-score),[29],-0.219
same,glycan array binding signal (z-score),[30],-0.209
same,glycan array binding signal (z-score),[31],-0.23
same,glycan array binding signal (z-score),[32],-0.216
same,glycan array binding signal (z-score),[33],-0.228
same,glycan array binding signal (z-score),Neu5Ac(a2-6)GalNAc,-0.229
same,glycan array binding signal (z-score),[34],-0.228
same,glycan array binding signal (z-score),[35],-0.225
same,glycan array binding signal (z-score),[36],-0.236
same,glycan array binding signal (z-score),[37],-0.241
same,glycan array binding signal (z-score),Neu5Ac(a2-8)Neu5Ac,-0.226
same,glycan array binding signal (z-score),[38],-0.243
same,glycan array binding signal (z-score),[39],-0.225
same,glycan array binding signal (z-score),[40],-0.238
same,glycan array binding signal (z-score),[41],-0.23
same,glycan array binding signal (z-score),[42],-0.218
same,glycan array binding signal (z-score),[43],-0.238

# Source: the supplement of paper PMC8728848
